Assay results from PubChem BioAssay AID485294 (National Center for Advancing Translational Sciences (NCATS), 2010).
About 150 (0.041%) of roughly 370,000 compounds were called active. Inconclusive means that the source gave no clear call. Such entries were picked first, then a sample of the others. Calls follow the shape of the dose curve; as a rule, active = well fitted inhibition curve with a large enough effect; inconclusive = small, poorly fitted or top-dose-only effect; inactive = flat fitted curve, though single readings scatter. No potency is given beside an inconclusive call; the fits are too rough.

biological target: Beta-lactamase (Escherichia coli (strain K12)) (UniProt P00811); experiment: qHTS Inhibitors of AmpC Beta-Lactamase (assay with detergent); details: AmpC hydrolysis of nitrocefin, absorbance 480 nm, 0.01% Triton; activity change, negative = inhibition: at 114 µM (top of the series); also: nearly all actives have a fitted effect of over 25% in size;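 as to activity change, negative = inhibition: 0% = no-compound wells and -100% = no-enzyme wells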
Chain of UniProt P00811 (P00811 whole entry, looked up): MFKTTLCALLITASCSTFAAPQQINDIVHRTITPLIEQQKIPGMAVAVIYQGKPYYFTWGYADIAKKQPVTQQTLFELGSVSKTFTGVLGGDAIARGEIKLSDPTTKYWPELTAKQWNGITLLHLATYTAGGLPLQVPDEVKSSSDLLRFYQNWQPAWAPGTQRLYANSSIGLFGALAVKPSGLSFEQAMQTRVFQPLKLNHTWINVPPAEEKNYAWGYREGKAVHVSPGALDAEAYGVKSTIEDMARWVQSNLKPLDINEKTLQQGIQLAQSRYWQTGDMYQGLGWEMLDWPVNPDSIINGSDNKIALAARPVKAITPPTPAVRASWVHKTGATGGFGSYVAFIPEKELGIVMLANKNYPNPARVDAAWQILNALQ
In short: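 AmpC (5.3 nM in the dispensed reagent) in 20 mM phosphate pH 7.0 with 0.01% (detergent screen) or 0.0001% Triton X-100 was preincubated with compounds for 15 min at room temperature. Nitrocefin was then added from an 800 uM solution, and hydrolysis was followed at 480 nm.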
Potency is read from the fitted curve at half-maximal effect; tags tell the direction and shape of the fitted curve.

Compound	Potency	activity change, negative = inhibition
CC(=O)c1cccc(NC(=O)N2CCOCC2)c1	inconclusive [inhibitor, full curve]	–
C=CCNC(=O)c1cccc(C(F)(F)F)c1	inconclusive [inhibitor, partial curve, poor fit]	–
COc1ccc2c(c1O)C(=O)c1ccccc1C2=O	–	inactive: 4.91%
c1ccc(-n2nnnc2Sc2ncnc3sc4c(c23)CCCC4)cc1	inconclusive [inhibitor, single point]	–
COc1cccc(Nc2nc(C)nc3c2oc2ccccc23)c1	–	inactive: -0.942%
COc1ccc(/C=C/C(=O)NCCSCc2ccco2)cc1	–	inactive: -0.401%
CN(C(=O)c1ccc2c(=O)n3c(nc2c1)CCCCC3)c1ccccc1	inconclusive [inhibitor, partial curve, poor fit]	–
O=C1C=CC(=O)N1CCNc1ncc(C(F)(F)F)cc1Cl	inconclusive [inhibitor, full curve, poor fit]	–
Cc1[nH]c2ccccc2c(=O)c1CN(C)Cc1ccccc1	inconclusive [inhibitor, full curve, poor fit]	–
Cc1cccc(/C=N/NC(=O)c2ccc(NC(=O)c3ccc(Cl)cc3)cc2)n1	–	inactive: -12.2%
NS(=O)(=O)c1ccc(CCNC(=O)CCCCCn2c(=S)[nH]c3ccc(Br)cc3c2=O)cc1	inconclusive [inhibitor, partial curve, poor fit]	–
CCc1ccccc1NC(=O)c1sc2nc(C)cc(COC)c2c1N	–	inactive: 8.96%
O=C(CNC(=O)c1ccc(Br)o1)NCC(=O)OCc1ccccc1	inconclusive [inhibitor, full curve, poor fit]	–
CC1(C)Cc2c(c(=S)nc(-c3ccccc3)n2CCOCCO)CO1	inconclusive [inhibitor, single point]	–
COc1cc(CNCc2ccncc2)cc(OC)c1OC	inconclusive [inhibitor, full curve, poor fit]	–
Cc1cc(C)cc(NC(=O)CSc2nc3nc(C)cc(C)n3n2)c1	inconclusive [inhibitor, full curve, poor fit]	–
O=P(O)(CCc1ccncc1)CN1CCCCC1	inconclusive [inhibitor, full curve, poor fit]	–
COC(=O)c1ccc(N2CCOCC2)c(F)c1	inconclusive [inhibitor, full curve, poor fit]	–
CCOc1ccc(CN2C(=O)c3ccccc3C2=O)cc1C(=O)O	inconclusive [inhibitor, partial curve, poor fit]	–
